# Data published in the supplement of paper PMC8728848.
# Some of the results follow.
# B1: Neuropilin-1 (Homo sapiens), O14786 (protein)
# chain: FKCMEALGMESGEIHSDQITASSQYSTNWSAERSRLNYPENGWTPGEDSYREWIQVDLGLLRFVTAVGTQGAISKETKKKYYVKTYKIDVSSNGEDWITIKEGNKPVLFQGNTNPTDVVVAVFPKPLITRFVRIKPATWETGISMRFEVYGCKITDYPCSGMLGMVSGLISDSQITSSNQGDRNWMPENIRLVTSRSGWALPPAPHSYINEWLQIDLGEEKIVRGIIIQGGKHRENKVFMRKFKIGYSNNGSDWKMIMDDSKRKAKSFEGNNNYDTPELRTFPALSTRFIRIYPERATHGGLGLRMELLGCEVE
# What was measured:
# Test in all cases: glycan array binding signal (z-score within array); higher = stronger binding
# Details in all cases: glycan notation: IUPAC condensed, linker removed
# [1] = target: Neu5Ac(a2-6)GalNAc
# Outline: (§1)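 The binding signal is a Z-score computed within each array. Data were drawn from 3228 arrays in the Consortium for Functional Glycomics database, restricted to those with a known protein sequence. Scores were averaged over arrays of the same protein sequence at different concentrations or buffers, and over linkers, and negative values can be taken as non-binding.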
# [2] = target: Neu5Ac(a2-6)GalNAc(b1-4)GlcNAc
# Outline: as §1
# [3] = target: Neu5Ac(a2-6)GlcNAc(b1-4)GlcNAc
# Outline: as §1
# [4] = target: Neu5Ac(a2-6)GlcNAc(b1-4)GlcNAc(b1-4)GlcNAc
# Outline: as §1
# [5] = target: Neu5Ac(a2-8)Neu5Ac
# Outline: as §1
# [6] = target: Neu5Ac(a2-8)Neu5Ac(a2-3)Gal(b1-4)Glc
# Outline: as §1
# [7] = target: Neu5Ac(a2-8)Neu5Ac(a2-3)[GalNAc(b1-4)]Gal(b1-4)Glc
# Outline: as §1
# [8] = target: Neu5Ac(a2-8)Neu5Ac(a2-8)Neu5Ac
# Outline: as §1
# [9] = target: Neu5Ac(a2-8)Neu5Ac(a2-8)Neu5Ac(a2-3)Gal(b1-4)Glc
# Outline: as §1
# [10] = target: Neu5Ac(a2-8)Neu5Ac(a2-8)Neu5Ac(a2-3)[GalNAc(b1-4)]Gal(b1-4)Glc
# Outline: as §1
# [11] = target: Neu5Ac(a2-8)Neu5Ac(a2-8)Neu5Ac(a2-8)Neu5Ac(a2-3)[GalNAc(b1-4)]Gal(b1-4)Glc
# Outline: as §1
# [12] = target: Neu5Ac(b2-6)Gal(b1-4)GlcNAc
# Outline: as §1
# [13] = target: Neu5Ac(b2-6)GalNAc
# Outline: as §1
# [14] = target: Neu5Ac9Ac(a2-3)Gal(b1-3)GlcNAc
# Outline: as §1
# [15] = target: Neu5Ac9Ac(a2-3)Gal(b1-4)GlcNAc
# Outline: as §1
# [16] = target: Neu5Ac9Ac(a2-6)Gal(b1-4)GlcNAc
# Outline: as §1
# [17] = target: Neu5Gc(a2-3)Gal(b1-3)GlcNAc
# Outline: as §1
# [18] = target: Neu5Gc(a2-3)Gal(b1-3)[Fuc(a1-4)]GlcNAc
# Outline: as §1
# [19] = target: Neu5Gc(a2-3)Gal(b1-4)Glc
# Outline: as §1
# [20] = target: Neu5Gc(a2-3)Gal(b1-4)GlcNAc
# Outline: as §1
# [21] = target: Neu5Gc(a2-3)Gal(b1-4)[Fuc(a1-3)]GlcNAc
# Outline: as §1
# [22] = target: Neu5Gc(a2-6)Gal(b1-4)GlcNAc
# Outline: as §1
# [23] = target: Neu5Gc(a2-6)GalNAc
# Outline: as §1
# [24] = target: Neu5Gc(b2-6)Gal(b1-4)GlcNAc
# Outline: as §1
binder,measurement,setting,value
B1,glycan array binding signal (z-score),[1],-0.228
same,glycan array binding signal (z-score),[2],-0.22
same,glycan array binding signal (z-score),[3],-0.318
same,glycan array binding signal (z-score),[4],-0.271
same,glycan array binding signal (z-score),[5],-0.158
same,glycan array binding signal (z-score),[6],-0.206
same,glycan array binding signal (z-score),[7],-0.292
same,glycan array binding signal (z-score),[8],-0.212
same,glycan array binding signal (z-score),[9],-0.283
same,glycan array binding signal (z-score),[10],-0.266
same,glycan array binding signal (z-score),[11],0.095
same,glycan array binding signal (z-score),[12],-0.315
same,glycan array binding signal (z-score),[13],-0.208
same,glycan array binding signal (z-score),[14],-0.249
same,glycan array binding signal (z-score),[15],-0.26
same,glycan array binding signal (z-score),[16],-0.196
same,glycan array binding signal (z-score),[17],-0.236
same,glycan array binding signal (z-score),[18],-0.214
same,glycan array binding signal (z-score),[19],-0.142
same,glycan array binding signal (z-score),[20],-0.287
same,glycan array binding signal (z-score),[21],-0.202
same,glycan array binding signal (z-score),[22],-0.225
same,glycan array binding signal (z-score),[23],-0.273
same,glycan array binding signal (z-score),[24],-0.198
